Measurements reported in article PMC4336329 (PLoS ONE, 2015).
In all, about 310,000 compounds went through this assay and about 14,000 (4.5%) showed an effect of 50% or more. Effects have a minus sign here. This is one part of the list.

Molecular target: human ether-à-go-go-related gene (hERG) potassium channel (human, UniProt Q12809)
Assay: primary screen, population patch clamp on CHO cells stably expressing hERG
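Further: peak tail current of the secondary pulse compared with the same well before compound.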

Sequence of human ether-à-go-go-related gene (hERG) potassium channel (Q12809 whole entry, looked up): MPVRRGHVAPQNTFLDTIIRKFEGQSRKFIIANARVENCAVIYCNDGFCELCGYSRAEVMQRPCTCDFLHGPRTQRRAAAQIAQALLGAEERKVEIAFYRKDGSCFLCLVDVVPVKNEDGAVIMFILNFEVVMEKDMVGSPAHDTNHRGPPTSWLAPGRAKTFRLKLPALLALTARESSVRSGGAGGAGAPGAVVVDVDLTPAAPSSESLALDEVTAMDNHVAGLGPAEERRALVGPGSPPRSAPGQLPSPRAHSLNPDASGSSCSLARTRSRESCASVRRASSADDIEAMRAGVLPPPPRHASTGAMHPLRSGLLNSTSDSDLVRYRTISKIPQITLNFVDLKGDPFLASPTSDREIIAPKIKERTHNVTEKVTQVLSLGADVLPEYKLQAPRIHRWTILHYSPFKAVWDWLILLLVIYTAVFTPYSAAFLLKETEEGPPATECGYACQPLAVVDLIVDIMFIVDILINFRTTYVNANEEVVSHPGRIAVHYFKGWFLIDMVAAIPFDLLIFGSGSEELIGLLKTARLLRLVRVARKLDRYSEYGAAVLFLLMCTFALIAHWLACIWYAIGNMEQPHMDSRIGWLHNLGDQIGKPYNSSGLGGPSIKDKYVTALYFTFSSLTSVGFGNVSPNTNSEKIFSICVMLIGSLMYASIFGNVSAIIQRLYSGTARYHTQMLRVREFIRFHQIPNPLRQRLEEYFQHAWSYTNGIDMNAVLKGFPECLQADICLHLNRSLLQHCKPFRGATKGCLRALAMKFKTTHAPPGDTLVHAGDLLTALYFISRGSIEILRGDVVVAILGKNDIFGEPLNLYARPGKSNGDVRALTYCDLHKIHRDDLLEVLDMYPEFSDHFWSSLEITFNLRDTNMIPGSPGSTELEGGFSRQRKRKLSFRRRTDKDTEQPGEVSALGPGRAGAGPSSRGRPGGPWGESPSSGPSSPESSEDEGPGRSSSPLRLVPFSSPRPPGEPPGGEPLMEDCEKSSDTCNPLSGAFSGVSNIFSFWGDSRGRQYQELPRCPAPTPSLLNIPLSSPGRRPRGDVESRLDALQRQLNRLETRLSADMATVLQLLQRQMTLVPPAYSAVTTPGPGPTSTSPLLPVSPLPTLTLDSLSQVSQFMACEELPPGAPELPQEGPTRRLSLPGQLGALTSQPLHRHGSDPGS

| Structure (SMILES) | hERG current change (%, negative = inhibition) at 10uM |
| --- | --- |
| O=C(CCCN1C(=O)C2CC=CCC2C1=O)Nc1ccccc1F (stereo not shown) | 1.61% |
| FC(F)Oc1ccc(NC(=S)NC23CC4CC(CC(C4)C2)C3)cc1 | 4.12% |
| CC1CCCCC1NC(=O)CN(C)S(=O)(=O)c1ccc2c(c1)CCC(=O)N2 (stereo not shown) | -11.4% |
| CCOC(=O)c1cc(-c2ccccc2)sc1NC(=O)CSc1nncs1 | -3.29% |
| CCOc1ccc(C(NC(=O)CC)c2c(O)ccc3ccccc23)cc1 (stereo not shown) | -7.96% |
| CC(=O)OCCCN(C)CC/C=C1/c2ccccc2CSc2ccccc21.Cl | -32.8% |
| Cc1ccc2c(c1)N(CC(=O)NCCCN1CCN(C)CC1)C(=O)CO2 | 9.46% |
| C=CCNC(=O)/C(=C\c1ccc(Br)cc1)NC(=O)c1ccccc1OC | -51.8% |
| CCOC(=O)N1CCC(NS(=O)(=O)c2ccc3c(c2)OCC(=O)N3)CC1 | 2.11% |
| CCN(CC)CCCNC(=O)c1ccc(Cl)c(S(=O)(=O)Nc2ccccc2OC)c1.Cl | -20.3% |
| O=C(Nc1ccccc1)OCC1CCCN2CCCCC12 (stereo not shown) | -39.4% |
| O=C(COC(=O)c1cncc(Br)c1)NCC1CCCO1 (stereo not shown) | 6.98% |
| CSc1cc(-c2ccc(Cl)cc2)c(C(=O)N2CCCC2)s1 | -46.8% |
| Cc1ccc(N2C(=O)C3C=NNC3C2=O)cc1 (stereo not shown) | 23.1% |
| C/C(N)=C(/C#N)C(=O)COC(=O)CNS(=O)(=O)c1c(F)cccc1F | 15.9% |
| COC(=O)c1cccn(CC(=O)c2ccc(Cl)cc2)c1=O | -41.6% |
| O=C(c1cccc(S(=O)(=O)N2CCc3ccccc32)c1)N1CCCC(C(F)(F)F)C1 (stereo not shown) | -25% |
| COC(=O)c1sccc1NC(=O)c1cc(-c2ccc(C)cc2)nc2ccccc12 | 21.2% |
| CCOc1ccc(N2CC(NC(=O)c3cccc4ccccc34)CC2=O)cc1 (stereo not shown) | 3.75% |
| O=C(N/N=C/c1cc(Cl)cc([N+](=O)[O-])c1O)c1ccccc1NS(=O)(=O)c1cccs1 | 3.95% |
| Fc1ccc2c(Cl)c(-c3nnc(-c4cccs4)o3)sc2c1 | 19.5% |
| Cc1c([N+](=O)[O-])ccc(S(=O)(=O)N2CCC(C(N)=O)CC2)c1C | -5.35% |
| CCn1cc(CCCC(=O)NCc2ccccc2OC)c2ccccc21 | 7.27% |
| CCCc1nc2oc3c(OCC)ncnc3c2c2c1COC(C)(C)C2 | -13.2% |
| CC(=O)Oc1ccccc1N1C(=O)c2ccc(C(=O)O)cc2C1=O | 11.3% |
| COc1ccc2c(C(=O)c3ccc(C)cc3)n(CCC(N)=O)[n+]([O-])c2c1 | -6.56% |
| O=C(O)C1CCCCC1C(=O)NCCc1ccccc1 (stereo not shown) | 1.68% |
| CN(C(=O)c1ccc(NC(=O)Cc2ccc(NC(=O)C3CCN(C(=O)CCc4ccccc4)CC3)cc2)cc1)C1CC1 | 9.51% |

| Structure (SMILES) | hERG current change (%, negative = inhibition) at 10uM |
| --- | --- |
| CCOC(=O)Cn1c(=O)c2c(nc(Br)n2Cc2ccc(Cl)cc2)n(C)c1=O | -18.3% |
| Cc1c(NC(=O)CSc2nnnn2Cc2ccccc2)c(=O)n(-c2ccccc2)n1C | -6.71% |
| O=C(C[n+]1cccc(NC(=O)c2ccccc2)c1)c1ccccc1.[Br-] | -18.1% |
| Cc1cccc(C)c1NC(=O)C(c1ccccc1)N1CC(=O)Nc2ccccc21 (stereo not shown) | -5.07% |
| COc1cccc(NC(=O)C(=O)N/N=C/c2cc(C)n(-c3ccc(Cl)c(Cl)c3)c2C)c1 | 8.18% |
| CC(C)(C)c1ccc(OC2=CS(=O)(=O)c3ccccc32)cc1 | 8.82% |
| CC(C)CC(=O)c1c[nH]c(C(=O)NCCCN2CCOCC2)c1 | 1.81% |
| CC(=O)Nc1c(C)nn(-c2ccc([N+](=O)[O-])cc2)c1C | 14.9% |
| CCOc1ccc(NC(=O)C(C)SC(N)=O)cc1 (stereo not shown) | -11.4% |
| CCOC(=O)c1c(C)n(C)c2ccc(OCC(O)Cn3c(C)nc4ccccc43)cc12 (stereo not shown) | -12.5% |
| Cc1ccc(-c2cc3nc(-c4ccccc4)cc(N)n3n2)cc1 | 10.2% |
| N#Cc1c(-c2ccc(F)cc2)noc1N | 4.96% |
| O=C(CN1C(=O)NC2(CCCCC2)C1=O)Oc1ccc2ccc(=O)oc2c1 | -0.0266% |
| O=c1onc(-c2c(F)cccc2F)n1-c1ccccc1Cl | 16.6% |
| Cc1ccc(C(C)NC(=S)NCc2ccc(F)cc2)cc1C (stereo not shown) | -31% |
| Cc1ccc(CSCC(=O)N2CCN(Cc3ccc4c(c3)OCO4)CC2)cc1 | -48.4% |
| CCOc1ccc(OCCC(=O)OCC(=O)Nc2cc(S(=O)(=O)N3CCOCC3)ccc2C)cc1 | 12.2% |
| Cc1ccc(C(=O)Nc2ccc3nccnc3c2)cc1 | 2.22% |
| CCCNC(=O)c1cc2nc(-c3ccccc3)cc(C(F)(F)F)n2n1 | 11.2% |
| Cn1c(Cn2cnc([N+](=O)[O-])n2)nnc1SCC(=O)Nc1ccc(Br)cc1 | 6.97% |
| N#Cc1ccccc1NC(=O)Nc1cccs1 | 18.2% |
| O=C(CN1C(=O)NC2(CCCCC2)C1=O)N1CCN(S(=O)(=O)c2cccc([N+](=O)[O-])c2)CC1 | -1.76% |
| CCCc1c(C(=O)N/N=C/c2ccccc2OCc2ccc(F)cc2)nnn1-c1nonc1N | 18.6% |
| O=C(NCC(c1cccs1)N1CCOCC1)c1ccc(Cl)c(S(=O)(=O)N2CCOCC2)c1 (stereo not shown) | -14.7% |
| Cc1ccc(S(=O)(=O)NCc2nc3ccccc3[nH]2)cc1 | 1.83% |
| O=C(Nc1ccc(Cl)cc1)C1CCCN1C(=O)NCc1ccccc1 (stereo not shown) | 10.2% |
| CC1(c2nnc(Cc3ccccc3)o2)CC(c2ccc(F)cc2)=NO1 (stereo not shown) | -8.08% |
